Experimental data: the supplement of paper PMC8728848
This is one part of the list.

How the values were obtained:
Assay in all cases: glycan array binding signal (z-score within array); higher = stronger binding
Details in all cases: glycan notation: IUPAC condensed, linker removed
[1] = target: Fuc(a1-2)Gal(b1-4)GlcNAc(b1-3)Gal(b1-4)GlcNAc(b1-2)Man(a1-3)[Fuc(a1-2)Gal(b1-4)GlcNAc(b1-3)Gal(b1-4)GlcNAc(b1-2)Man(a1-6)]Man(b1-4)GlcNAc(b1-4)GlcNAc
Procedure, shortened: (§1)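 The binding signal is a Z-score computed within each array. Data were drawn from 3228 arrays in the Consortium for Functional Glycomics database, restricted to those with a known protein sequence. Scores were averaged over arrays of the same protein sequence at different concentrations or buffers, and over linkers, and negative values can be taken as non-binding.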

[2] = target: Fuc(a1-2)Gal(b1-4)GlcNAc(b1-3)Gal(b1-4)GlcNAc(b1-3)Gal(b1-4)GlcNAc
Procedure, shortened: as §1

[3] = target: Fuc(a1-2)Gal(b1-4)GlcNAc(b1-3)GalNAc
Procedure, shortened: as §1

[4] = target: Fuc(a1-2)Gal(b1-4)GlcNAc(b1-3)[Fuc(a1-2)Gal(b1-4)GlcNAc(b1-6)]GalNAc
Procedure, shortened: as §1

[5] = target: Fuc(a1-2)Gal(b1-4)GlcNAc(b1-3)[Fuc(a1-3)[Gal(b1-4)]GlcNAc(b1-6)]Gal(b1-4)Glc
Procedure, shortened: as §1

[6] = target: Fuc(a1-2)Gal(b1-4)GlcNAc(b1-6)GalNAc
Procedure, shortened: as §1

[7] = target: Fuc(a1-2)Gal(b1-4)GlcNAc6S
Procedure, shortened: as §1

[8] = target: Fuc(a1-2)Gal(b1-4)[Fuc(a1-3)]GlcNAc
Procedure, shortened: as §1

[9] = target: Fuc(a1-2)Gal(b1-4)[Fuc(a1-3)]GlcNAc(b1-2)Man(a1-3)[Fuc(a1-2)Gal(b1-4)[Fuc(a1-3)]GlcNAc(b1-2)Man(a1-6)]Man(b1-4)GlcNAc(b1-4)[Fuc(a1-6)]GlcNAc
Procedure, shortened: as §1

[10] = target: Fuc(a1-2)Gal(b1-4)[Fuc(a1-3)]GlcNAc(b1-2)[Fuc(a1-2)Gal(b1-4)[Fuc(a1-3)]GlcNAc(b1-4)]Man(a1-3)[Fuc(a1-2)Gal(b1-4)[Fuc(a1-3)]GlcNAc(b1-2)Man(a1-6)]Man(b1-4)GlcNAc(b1-4)GlcNAc
Procedure, shortened: as §1

[11] = target: Fuc(a1-2)Gal(b1-4)[Fuc(a1-3)]GlcNAc(b1-3)Gal(b1-4)[Fuc(a1-3)]GlcNAc
Procedure, shortened: as §1

[12] = target: Fuc(a1-2)Gal(b1-4)[Fuc(a1-3)]GlcNAc(b1-3)Gal(b1-4)[Fuc(a1-3)]GlcNAc(b1-3)Gal(b1-4)[Fuc(a1-3)]GlcNAc
Procedure, shortened: as §1

[13] = target: Fuc(a1-2)Gal(b1-4)[Fuc(a1-3)]GlcNAc(b1-3)GalNAc
Procedure, shortened: as §1

[14] = target: Fuc(a1-2)Gal(b1-4)[Fuc(a1-3)]GlcNAc(b1-3)[Neu5Ac(a2-6)Gal(b1-4)GlcNAc(b1-6)]Gal(b1-4)Glc
Procedure, shortened: as §1

[15] = target: Fuc(a1-2)Gal3S(b1-4)GlcNAc
Procedure, shortened: as §1

[16] = target: Fuc(a1-2)Gal6S(b1-3)GlcNAc
Procedure, shortened: as §1

[17] = target: Fuc(a1-2)Gal6S(b1-3)GlcNAc6S
Procedure, shortened: as §1

Fuc(a1-2)Gal6S(b1-4)Glc = target: Fuc(a1-2)Gal6S(b1-4)Glc
Procedure, shortened: as §1

[18] = target: Fuc(a1-2)Gal6S(b1-4)Glc6S
Procedure, shortened: as §1

Fuc(a1-2)[Gal(a1-3)]Gal = target: Fuc(a1-2)[Gal(a1-3)]Gal
Procedure, shortened: as §1

[19] = target: Fuc(a1-2)[Gal(a1-3)]Gal(b1-3)GalNAc
Procedure, shortened: as §1

[20] = target: Fuc(a1-2)[Gal(a1-3)]Gal(b1-3)GalNAc(b1-3)Gal(a1-4)Gal(b1-4)Glc
Procedure, shortened: as §1

[21] = target: Fuc(a1-2)[Gal(a1-3)]Gal(b1-3)GlcNAc
Procedure, shortened: as §1

[22] = target: Fuc(a1-2)[Gal(a1-3)]Gal(b1-3)GlcNAc(b1-2)Man(a1-3)[Fuc(a1-2)[Gal(a1-3)]Gal(b1-3)GlcNAc(b1-2)Man(a1-6)]Man(b1-4)GlcNAc(b1-4)GlcNAc
Procedure, shortened: as §1

[23] = target: Fuc(a1-2)[Gal(a1-3)]Gal(b1-3)GlcNAc(b1-2)Man(a1-3)[Fuc(a1-2)[Gal(a1-3)]Gal(b1-3)GlcNAc(b1-2)Man(a1-6)]Man(b1-4)GlcNAc(b1-4)[Fuc(a1-6)]GlcNAc
Procedure, shortened: as §1

[24] = target: Fuc(a1-2)[Gal(a1-3)]Gal(b1-3)GlcNAc(b1-3)GalNAc
Procedure, shortened: as §1

[25] = target: Fuc(a1-2)[Gal(a1-3)]Gal(b1-3)GlcNAc(b1-6)GalNAc
Procedure, shortened: as §1

[26] = target: Fuc(a1-2)[Gal(a1-3)]Gal(b1-4)Glc
Procedure, shortened: as §1

[27] = target: Fuc(a1-2)[Gal(a1-3)]Gal(b1-4)GlcNAc
Procedure, shortened: as §1

[28] = target: Fuc(a1-2)[Gal(a1-3)]Gal(b1-4)GlcNAc(b1-2)Man
Procedure, shortened: as §1

B1: DC-ASGPR L+GEE (Homo sapiens) (protein)
chain: MTRTYENFQYLENKVKVQGFKNGPLPLQSLLQRLRSGPCHLLLSLGLGLLLLVIICVVGFQNSKFQRDLVTLRTDFSNFTSNTVAEIQALTSQGSSLEETIASLKAEVEGFKQERQAGVSELQEHTTQKAHLGHCPHCPSVCVPVHSEMLLRVQQLVQDLKKLTCQVATLNNNGEEASTEGTCCPVNWVEHQDSCYWFSHSGMSWAEAEKYCQLKNAHLVVINSREEQNFVQKYLGSAYTWMGLSDPEGAWKWVDGTDYATGFQNWKPGQPDDWQGHGLGGGEDCAHFHPDGRWNDDVCQRPYHWVCEAGLGQTSQESH
**Q.** What does the source list for B1?
**A.** glycan array binding signal (z-score) [1]: 0.538; glycan array binding signal (z-score) [2]: -0.176; glycan array binding signal (z-score) [3]: 0.17; glycan array binding signal (z-score) [4]: 0.128; glycan array binding signal (z-score) [5]: -0.08; glycan array binding signal (z-score) [6]: 2.17; glycan array binding signal (z-score) [7]: -0.553; glycan array binding signal (z-score) [8]: -0.075; glycan array binding signal (z-score) [9]: -0.285; glycan array binding signal (z-score) [10]: 0.202; glycan array binding signal (z-score) [11]: -0.128; glycan array binding signal (z-score) [12]: -0.412; glycan array binding signal (z-score) [13]: -0.112; glycan array binding signal (z-score) [14]: -0.436; glycan array binding signal (z-score) [15]: -0.315; glycan array binding signal (z-score) [16]: -0.455; glycan array binding signal (z-score) [17]: 0.136; glycan array binding signal (z-score) (Fuc(a1-2)Gal6S(b1-4)Glc): -0.468; glycan array binding signal (z-score) [18]: -0.532; glycan array binding signal (z-score) (Fuc(a1-2)[Gal(a1-3)]Gal): -0.567; glycan array binding signal (z-score) [19]: -0.285; glycan array binding signal (z-score) [20]: -0.318; glycan array binding signal (z-score) [21]: -0.3; glycan array binding signal (z-score) [22]: 0.307; glycan array binding signal (z-score) [23]: -0.55; glycan array binding signal (z-score) [24]: -0.214; glycan array binding signal (z-score) [25]: 2.67; glycan array binding signal (z-score) [26]: 0.073; glycan array binding signal (z-score) [27]: -0.715; glycan array binding signal (z-score) [28]: 0.292
